# B1: P4F6 (scFv format) (scFv, part only; not given: linker, domain order, tags, V domains shown, not shown: another chain or arm of the molecule; small tags and cut ends)
# VH: QVQLVQSGAEVKKPGSSVKVSCKASGGTFGSYGISWVRQAPGQGLEWMGGIIPIFGTVTYAQKFQGRVTITADESTRTAYMELSSLRSEDTAVYYCARDSWSGATGASDTWGQGTLVTVSS
# VL: [about 100 residues omitted here]RTFGQGTKVEIK
# Target: human FLT3 (hFLT3) (human) (UniProt P36888)
# Experiment: SPR, Table 6, scFv format; set-up and antigen species not described
# Sequence of UniProt P36888 (P36888 27-543 limits assumed): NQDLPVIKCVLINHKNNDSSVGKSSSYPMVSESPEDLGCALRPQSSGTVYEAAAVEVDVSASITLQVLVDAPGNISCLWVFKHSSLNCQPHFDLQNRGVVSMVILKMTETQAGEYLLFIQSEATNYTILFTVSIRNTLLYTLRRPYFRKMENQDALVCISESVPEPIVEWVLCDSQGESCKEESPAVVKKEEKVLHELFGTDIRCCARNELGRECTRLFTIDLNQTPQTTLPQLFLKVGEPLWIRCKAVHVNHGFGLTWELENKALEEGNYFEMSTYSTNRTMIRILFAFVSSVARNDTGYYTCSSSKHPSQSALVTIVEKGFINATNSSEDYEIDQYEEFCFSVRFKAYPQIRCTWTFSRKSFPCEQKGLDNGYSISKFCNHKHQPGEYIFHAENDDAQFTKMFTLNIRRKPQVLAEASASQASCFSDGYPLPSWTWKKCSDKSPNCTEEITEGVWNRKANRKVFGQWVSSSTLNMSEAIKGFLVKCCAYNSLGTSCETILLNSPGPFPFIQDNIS
binder,measurement,value
B1,Kd,15.1 nM
same,koff,0.00199 s⁻¹
same,t1/2,5.8 min

# Source: patent publication US20230059489A1
